# According to the supplement of paper PMC10338343:
# ± gives the standard deviation. In all, about 6,600 sequences were measured (“pre-steady-state target cleavage rate”: median about 0.07, highest 2% from about 0.72 on). The list shows a part of the results, in another mix than the full data.
# Tested on: MIWI (PIWIL1) piRISC loaded with Kctd7 piRNA (30 nt)
# Experiment: pre-steady-state target cleavage rate (min^-1); MIWI and MILI are mouse PIWI proteins and EfPiwi is from a freshwater sponge; tags in brackets are library labels; higher = faster piRNA-guided slicing of the target
# Details: guide: Kctd7 piRNA 5'p-UGUUAAUCUCUCAGAGAAGGUGACAGUGAU; auxiliary factor: 500 nM mouse GTSF1
# In short: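 A transcribed, DNA-blocked target RNA library […] was incubated at 33 °C for 0–8 or 0–960 min with 1 nM active affinity-purified piRISC carrying one synthetic guide, in HEPES–potassium acetate buffer with or without 500 nM GTSF1 partner protein. Uncleaved targets were then sequenced and normalised to depth and to weakly complementary targets. Data from three trials were pooled, with k3 capped at 0.0001 min^-1, and a burst-and-steady-state fit yielded the pre-steady-state cleavage rate.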
# 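Note: 1 nM active piRISC with 0.1 nM target library at 33 °C single turnover.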
row,Sequence,pre-steady-state target cleavage rate
1,UUCACUGUCACCUUCUCUGAGAGAUUAACC [g2:g29:cont:t1C],0.414 ± 0.025
2,UAGUGUGUCACCUUCUCUGAGAGAUUAAGCA,0.176 ± 0.022
3,UAGUGACAGUGCUUCUCUGAGAGAGUAACA,0.00669 ± 0.0015
4,UAGUGAGUCUCCAUCUCUGAGAGAUUAACA,0.196 ± 0.021
5,UAGUGUGUCUCCUUCUCUGAGAGAUUAACA,0.291 ± 0.03
6,UAGUGUCUCACCUUCUGUGAGAGAUUAACA,0.323 ± 0.022
7,UACGACUGUCACCUUCUCUGAGAGAUUAACA,0.746 ± 0.07
8,UAGUGUGUCACCUACUCUGAGAGAAUAACA,0.219 ± 0.044
9,UAGUCUGUCACCUUCUCUGAGAGUUUAUCA,0.191 ± 0.035
10,AUCACUGUCACCUUCUCUGAGAGAUAAAGA,0.0799 ± 0.019
11,UAGUCGUGUCACCUUCUCUGAGAGAUUAACA,0.712 ± 0.039
12,AUCACUGUCACCUUCUCUCUCAGAUUAUGA,0.00466 ± 0.0037
13,UAGUGACAGUGGAAGAGACAGAAUUAACA,< 0.0001
14,UACACACACACCUUCUCUGAGAGAUUAAGA,0.117 ± 0.028
15,UUCACUAUCACCUUCUCUGAGAGAUUAACA,0.608 ± 0.033
16,UAGUGAGUCAGGUUCUCUGAGAGAUUAUGA,0.00592 ± 0.0026
17,AUCACUGUCACCUUCUCUGAGAGUUUAAGA,0.526 ± 0.13
18,UUCACUGUCACCUUCUCUGAGAGAAAAACA,0.143 ± 0.031
19,UAGUGUGUUCACCUUCUCUGAGAGAUUAACA,0.589 ± 0.037
20,UAGUCUGUGUCCUUCUCUGAGAGAUUAACA,0.317 ± 0.028
21,UAGUCUGGUCACCUUCUCUGAGAGAUUAACA,0.749 ± 0.046
22,UAGUGUGUCAGCUUCUCUGAGACAUUAACA,0.0195 ± 0.0039
23,AUCACUGUCAGCAUCUCUGAGAGAUUAACA,0.673 ± 0.045

row,Sequence,pre-steady-state target cleavage rate
1,UACACUGUCACCUUCUCUGAUGAGAUUAACA,0.0134 ± 0.0066
2,UAGUGACUCACCUUCUCUGUGAGAUAUUGA,0.00542 ± 0.0036
3,UAGACUGUCACCUUCUCUGAAAGAUUAACA,0.292 ± 0.02
4,UAGUGUGUCACCUACUCUGAGAGAUUAAGA,0.158 ± 0.021
5,UAGUGAGAGUCCUUCUCUGAGAGAUUAACA,0.145 ± 0.017
6,AUCAGUGUCACCUACUCUGAGAGAUUAACA,0.666 ± 0.043
7,AUCACUGUCACCCUUCUCUGAGAGAUUAACA,0.532 ± 0.028
8,UAGUCUGUCACCUUGUCUGAGAGAUUAUCA,0.144 ± 0.025
9,UAGUCUGUCACCUUCUCUGAGAGACUAACA,0.169 ± 0.028
10,UAGUCUGUCACCCUCUCUGAGAGAUUAACA,0.671 ± 0.038
11,UAGUGAGUCACCUUCACUGAGACAUUAACA,0.205 ± 0.036
12,UAGACUGUCACCUAGUCUGAGAGAUUAUGA,0.00667 ± 0.0039
13,UAGUGUGUCACCAUCUCUGAGACAUUAACA,0.169 ± 0.022
14,UAGUGACAGUCCUUCUGUGUGAGAUUAACA,0.0038 ± 0.0038
15,UAGUCUGUGUCCUUCUCUGAGAGAUUAAGA,0.0624 ± 0.011
16,UAGUCUGUCACCUUCUCUGAGAGAUUUACA,0.343 ± 0.039
17,UAGUGAGUCACCUUCUCUGAGACAAUAACA,0.0552 ± 0.011
18,UAGUGAGUCACGUUCUCUGAGAGAUUUACA,0.222 ± 0.03
19,UACACUGUCACCUUCACUGAGAGAUUAUCA,0.148 ± 0.026
20,UAGUGACAGUCCUUCUCUGAGAGAUUAAUCA,0.0204 ± 0.0045
21,UAGACUCUCACCUUCUCUGAGAGAUUAACA,0.431 ± 0.029
22,UAGUGACACACCUUGACUGAGAGAUUAACA,0.0105 ± 0.0029
23,UAGACUGUCUGGUUCUCUGAGAGAUUAACA,0.103 ± 0.012

row,Sequence,pre-steady-state target cleavage rate
1,UAGACUGUCACCUUCUCUGUGAGAUUAAGA,0.0951 ± 0.013
2,AUCACUGUCACCCUCUCUGAGAGAUUAACA,0.639 ± 0.04
3,UAGUGACACACCUUCUCUGACAGAUUUACA,0.0123 ± 0.0038
4,UAGUCUGUCACCUUCUCAGAGACAUUAACA,0.16 ± 0.02
5,UUCACUCUCACCUUCUGUGAGAGAUUAACA,0.114 ± 0.013
6,UAGUGACAGUGCUUCUCUGAGAGAUUAACA [g2:g19:cont:t1A],0.0159 ± 0.0024
7,UAGUGACACACCUACUCUGUGAGAUUAACA,0.0531 ± 0.0085
8,UAGUCUGUCACCUUCUCUGAGAGUAUAAGA,0.01 ± 0.0047
9,UAGUGACAGUGGAACUCUGAGAGAUCAACA,< 0.0001
10,UAGUGUGACACCUUCUCUGAGAGAUUUACA,0.284 ± 0.045
11,UAGUCUGUCACCUUCUCUGAGAGAUUAUACA,0.258 ± 0.035
12,UUCACACUCACCUUCUCUGAGAGAUUAUGA,0.104 ± 0.025
13,UAGUGACACAGCUUCUCUGAGAGAUUUACA,0.0581 ± 0.0086
14,UAGACUGUCACCUUCUGUGAGAGAUUAUGA,0.0716 ± 0.013
15,UAGUGACUCACCUUGUCUGAGUGAUUAACA,0.0162 ± 0.003
16,UACACUGUCAGGAUCUCUGAGAGAUUAAGA,0.0115 ± 0.0029
17,UAGUCUGUCACCUUAUCUGAGAGAUUAACA,0.451 ± 0.023
18,UUCUGUGUCACCUUCUCUGAGAGAUUUUGA,0.152 ± 0.03
19,UAGUGUGUCCACCUUCUCUGAGAGAUUAACA,0.408 ± 0.041
20,UAGACUGUCACCUUCUCUGAGAGCUUAACA,0.226 ± 0.029
21,UAGUGAGUCUCCUUCUCUGAGUGAUUAACA,0.0201 ± 0.0023
22,UAGACUGUCACCUUCUCUGAGAAAUUAACA,0.166 ± 0.016
23,UACACUGUCACCUUGUCUGAGAGAUUAUCA,0.193 ± 0.039

row,Sequence,pre-steady-state target cleavage rate
1,UACACUGUGAGCUUCUCUGAGAGAUUAACA,0.45 ± 0.025
2,AUCACUGUCACCUUCUCUCAGAGAUUAACA,0.161 ± 0.018
3,UACACUGUCACCUAGUCUGAGAGAUUAUGA,0.0278 ± 0.012
4,AUCUGUGUCACCUUCUCUGAGAGAUUAAGA,0.0669 ± 0.012
5,UUCACUCUCACCUUCUCUGAGACAUUAACA,0.332 ± 0.026
6,UAGUGACUCACCUUCUCUGAGUGUUUAACA,0.0151 ± 0.0038
7,UACUGAGUCACCUUCUCUGAGAGAUUAACA,0.597 ± 0.045
8,UAGUGACACACCUUCUCUGAGGGAUUAACA,0.534 ± 0.043
9,UAGUGACAGUGCUUCUCCGAGAGAUUAACA,0.0118 ± 0.0036
10,UAGUCUGUCACCUACUCUGAGAGAUUAACA,0.551 ± 0.034
11,UACACUGUCUCGUUCUCUGAGAGAUUAACA,0.597 ± 0.03
12,UACACUGUGACCUUCUCUGACAGAUUAACA,0.378 ± 0.03
13,UAGUGAGUCACCAUCUCUGUGAGAUUAACA,0.133 ± 0.0078
14,UAGUGACUCACCUUCACUGAGAGAUUUUGA,0.00657 ± 0.0031
15,UAGUGACAGUCCUUCUUUGAGAGAUUAACA,0.00836 ± 0.0033
16,UAGACUGUCACCAUCUGUGAGAGAUUAACA,0.359 ± 0.023
17,UAGUGACUGACCUUCUCUGACAGAUUAACA,0.0548 ± 0.0096
18,UAGUCUGUCAGCUUCUCUGAGAGUUUAACA,0.127 ± 0.016
19,UUCAGACUCACCUUCUCUGAGAGAUUAAGA,0.127 ± 0.02
20,UAGUGAGACACCUUCUCUGAGAGUUUAACA,0.25 ± 0.046
21,UACACUGUCACCUUCUCUCAGACAUUAACA,0.0659 ± 0.0079
22,UAGAGUGUGACCUUCUCUGAGAGAUUAACA,0.625 ± 0.027
